We go through six cell lines from the supplement of paper PMC4967469.

Lines with a small IC50 respond at low doses; a fit beyond the top or the lowest dose is shown as a bound at that dose. For AUC the same curve is integrated over the 256-fold range of doses and scaled to a fraction; it is 1 without any effect and falls as sensitivity rises. For some assays here: The top dose, if marked as inferred, is not printed in the source and was worked back from the curve model. For some assays here: Drugs with an entry number were screened twice under separate entries, and the two screens often disagree. A value given as a limit tells only on which side of the number the result lay.

What all share (assay): Viability of human cancer cell lines after 72 h of drug (GDSC screen)
Compound in one test: CC(=O)O[C@@]12CO[C@@H]1C[C@H](O)[C@@]1(C)C(=O)[C@H](O)C3=C(C)[C@@H](OC(=O)[C@H](O)[C@@H](NC(=O)OC(C)(C)C)c4ccccc4)C[C@@](O)([C@@H](OC(=O)c4ccccc4)[C@H]21)C3(C)C [Docetaxel]
The following applies: top dose 0.0125 µM. The protocol: (§1)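 Human cancer cell lines in 384-well plates, medium with 10% serum, drug for 72 h over a 256-fold dose range (nine 2-fold or five 4-fold steps up to the top dose). Adherent lines were fixed and stained with the nucleic acid dye Syto60, suspension lines read with resazurin; signal relative to control wells, capped at 0 and 100%. One two-parameter sigmoid per drug and line, fitted in a mixed model over all curves with the slope shared within a line.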

Compound in the next test: CN1CCN(c2ccc([N+](=O)[O-])c3no[n+]([O-])c23)CC1 [NSC-207895]
The following applies: top dose 20 µM; top dose inferred. The protocol:
as §1

Compound in the next test: COC(=O)[C@H](CCSC)NC(=O)c1ccc(NC[C@@H](N)CS)cc1-c1ccccc1 [FTI-277]
The note with it: top dose 1.024 µM; top dose inferred. How it is done:
as §1

Compound in another test: COCC[n+]1c2c(n(Cc3cnccn3)c1C)C(=O)c1ccccc1C2=O [YM155]
The note with it: top dose 5.12 µM. How it is done:
as §1

Compound in another test: C[C@]1(O)C[C@@H](c2nc(-c3ccc4ccc(-c5ccccc5)nc4c3)c3c(N)nccn32)C1 [OSI-906]
The note with it: top dose 2.56 µM; top dose inferred. The protocol:
as §1

Compound in a further test: Cc1ccc(C(=O)N(CCCN)[C@@H](c2nc3cc(Cl)ccc3c(=O)n2Cc2ccccc2)C(C)C)cc1 [SB-715992]
The following applies: top dose 0.128 µM; top dose inferred. How it is done: as §1

Compound in a further test: Cc1sc2c(c1C)C(c1ccc(Cl)cc1)=N[C@@H](CC(=O)OC(C)(C)C)c1nnc(C)n1-2 [JQ1]
How it is done:
as §1

Compound in another test: O=C(/C=C/c1cccc(S(=O)(=O)Nc2ccccc2)c1)NO [Belinostat]
The note with it: top dose 20 µM; top dose inferred. How it is done: as §1

Compound in the next test: c1ccc2c(CCNc3ccc(Nc4ccncc4)cc3)c[nH]c2c1 [JNJ-26854165]
The following applies: top dose 10 µM. The protocol: as §1

Compound in the next test: CCOc1nc(NC(=O)Cc2cc(OC)ccc2OC)cc(N)c1C#N [JNK Inhibitor VIII]
The following applies: top dose 10 µM; top dose inferred. How it is done:
as §1

Where [1] appears, read: top dose 1 µM, screen: GDSC drug entry 1218, top dose inferred.
Setting [2] is: top dose 2.56 µM, screen: GDSC drug entry 163.

For the cell line H2722 (mesothelioma, adherent), the AUC with Docetaxel is 0.956; with NSC-207895 it was 0.968; with FTI-277, 0.945; with YM155 it was 0.179; in the test with OSI-906 it was 0.962; in the test with SB-715992 it was 0.984. Also, the AUC in the test with JQ1 (setting [1]) was determined as 0.982; with JQ1 (setting [2]), 0.739; in the test with Belinostat it was 0.462; with JNJ-26854165 it was 0.911. Besides, the IC50 is over 12.5 nM with Docetaxel; over 20 µM with NSC-207895; over 1020 nM in the test with FTI-277; 27.5 nM with YM155; over 2560 nM with OSI-906; over 128 nM in the test with SB-715992. The IC50 was over 1000 nM with JQ1 (setting [1]), 892 nM with JQ1 (setting [2]), 968 nM with Belinostat and over 10 µM with JNJ-26854165.
On to HCC70 (breast, adherent), for which the AUC came to 0.671 with Docetaxel; 0.931 with NSC-207895; 0.985 in the test with FTI-277; 0.488 with YM155; 0.988 with OSI-906; 0.857 with SB-715992. In addition, the AUC with JQ1 (setting [1]) was 0.986; with JQ1 (setting [2]), 0.662; with Belinostat, 0.356; with JNJ-26854165, 0.909. Also, the IC50 is 2.31 nM in the test with Docetaxel; over 20 µM with NSC-207895; over 1020 nM with FTI-277; 297 nM with YM155; over 2560 nM with OSI-906; 101 nM with SB-715992. In addition, the IC50 is over 1000 nM in the test with JQ1 (setting [1]), 448 nM in the test with JQ1 (setting [2]), 504 nM in the test with Belinostat and over 10 µM with JNJ-26854165.
Turning to HMV-II (melanoma, adherent), the AUC with Docetaxel was 0.911; with NSC-207895, 0.927; in the test with FTI-277, 0.918; with YM155, 0.115; in the test with OSI-906, 0.535; with SB-715992 it was 0.935. The AUC was 0.881 in the test with JQ1 (setting [1]), 0.787 with JQ1 (setting [2]), 0.484 in the test with Belinostat and 0.882 with JNJ-26854165. Moreover, the concentration for half-maximal inhibition (IC50) was over 12.5 nM with Docetaxel; over 20 µM in the test with NSC-207895; over 1020 nM with FTI-277; under 20 nM with YM155; 204 nM in the test with OSI-906; over 128 nM with SB-715992. Moreover, the IC50 is over 1000 nM in the test with JQ1 (setting [1]), 1390 nM in the test with JQ1 (setting [2]), 1120 nM in the test with Belinostat and over 10 µM in the test with JNJ-26854165.
Turning to HSC-4 (head and neck, adherent), the AUC in the test with Docetaxel amounted to 0.401; with NSC-207895, 0.87; in the test with FTI-277, 0.977; with YM155, 0.041; with OSI-906, 0.979; in the test with SB-715992, 0.968. In addition, the AUC in the test with JQ1 (setting [1]) came out at 0.973; with JQ1 (setting [2]) it was 0.901; with Belinostat it was 0.627; in the test with JNJ-26854165, 0.839. Further, the IC50 in the test with Docetaxel is 0.382 nM; with NSC-207895, over 20 µM; in the test with FTI-277 it was over 1020 nM; in the test with YM155 it was under 20 nM; with OSI-906, over 2560 nM; with SB-715992, over 128 nM. Besides, the half-maximal inhibitory concentration (IC50) with JQ1 (setting [1]) was over 1000 nM; with JQ1 (setting [2]) it was over 2560 nM; in the test with Belinostat, 3140 nM; in the test with JNJ-26854165, over 10 µM.
Take IGR-37 (melanoma, adherent): the AUC with Docetaxel came to 0.604; with JNK Inhibitor VIII, 0.974; with NSC-207895, 0.801; with FTI-277 it was 0.989; with YM155, 0.287; with OSI-906 it was 0.916. For the same cell line, the AUC with SB-715992 is 0.939; in the test with JQ1 (setting [1]), 0.988; with JQ1 (setting [2]) it was 0.746; with JNJ-26854165 it was 0.929. The concentration for half-maximal inhibition (IC50) with Docetaxel is 1.46 nM; with JNK Inhibitor VIII, over 10 µM; with NSC-207895, 8.77 µM; with FTI-277, over 1020 nM; in the test with YM155, 85.2 nM; with OSI-906 it was over 2560 nM. Further, the IC50 with SB-715992 is over 128 nM; with JQ1 (setting [1]) it was over 1000 nM; with JQ1 (setting [2]) it was 750 nM; with JNJ-26854165 it was over 10 µM.
Consider KU-19-19 (bladder, adherent), for which the AUC is 0.904 with Docetaxel; 0.974 in the test with JNK Inhibitor VIII; 0.987 in the test with NSC-207895; 0.984 with FTI-277; 0.156 in the test with YM155; 0.967 in the test with OSI-906. Moreover, the AUC with SB-715992 worked out at 0.986; with JQ1 (setting [1]) it was 0.986; in the test with JQ1 (setting [2]), 0.933; in the test with Belinostat, 0.441; with JNJ-26854165, 0.548. For the same cell line, the IC50 in the test with Docetaxel was over 12.5 nM; in the test with JNK Inhibitor VIII it was over 10 µM; with NSC-207895, over 20 µM; with FTI-277 it was over 1020 nM; with YM155, 27.8 nM; with OSI-906 it was over 2560 nM. For the same cell line, the IC50 with SB-715992 was over 128 nM; with JQ1 (setting [1]), over 1000 nM; with JQ1 (setting [2]), over 2560 nM; with Belinostat, 864 nM; with JNJ-26854165, 0.844 µM.
